From PubChem BioAssay AID624202 (National Center for Advancing Translational Sciences (NCATS), 2012)
In all, about 380,000 compounds went through this assay and about 4,000 (1.1%) were called active. The shares of active, inactive and inconclusive entries below differ from those in the screen. Calls come from the whole dose curve; as a rule, active = well fitted activation curve with a large enough effect; inconclusive = small, poorly fitted or top-dose-only effect; inactive = no such curve, though single readings can be large or run the other way. A potency beside an inconclusive call is a rough fit, not a confirmed value. Some compounds were tested as several samples or in several runs, with calls that do not always agree.

test: qHTS Assay to Identify Small Molecule Activators of BRCA1 Expression; details: MCF7-BRCA1-FFLuc reporter, luminescence, 48 h; activation: at 46.1 µM (top of the series), scaled: vehicle 0%, 10 µM genistein 100% unless noted; note: nearly all actives have a fitted effect of over 80% in size
Procedure, shortened: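 Quantitative HTS in MCF7 cells stably reporting BRCA1 expression via firefly luciferase. Compound treatment lasts 48 h at 37 °C in phenol-red free MEM. Activation is expressed relative to genistein at 10 microM and DMSO.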
Potency is the fitted concentration of half-maximal effect; tags give direction and shape of the fitted curve.

SMILES | Potency | activation
CCN(C[C@H]1N[C@@](CC)(C(=O)OC)[C@H]2C(=O)N(Cc3ccccc3)C(=O)[C@@H]12)C(=O)c1ccc(C(C)(C)C)cc1 | inactive | 
CC(C)(O)c1ccccc1CC[C@@H](SCC1(CC(=O)O)CC1)c1cccc(/C=C/c2ccc3ccc(Cl)cc3n2)c1 | inconclusive: 17.8 µM [activator, single point] | 
O=C(OCC(=O)N1CCc2ccccc21)c1ccccc1[N+](=O)[O-] | inconclusive: 7.94 µM [activator, partial curve, poor fit] | 
CCc1ccc(NC(=O)C2(C)Cc3ccccc3C(=O)O2)cc1 (stereo unspecified) | inconclusive: 12.6 µM [activator, partial curve, poor fit] | 
O=C(Nc1ccc(Br)cc1)c1cc(-c2cccs2)on1 | inconclusive: 22.4 µM [activator, single point] | 
COCn1c(-c2ccc(OC)cc2)nc2ccccc21 | inconclusive: 35.5 µM [activator, partial curve, poor fit] | 
CCOc1ccc(C(=O)Nc2ccc(-c3nc4ccccc4[nH]3)cc2)cc1[N+](=O)[O-] | active: 3.16 µM | 
CC(C)c1ccc(NC(=O)COc2ccccn2)cc1 | active: 3.98 µM | 
CCOC(=O)CN1C(=O)C(CC)Oc2ccccc21 (stereo unspecified) | inactive | 
CCOC(=O)c1ccc(N2CCN(c3ccccc3F)CC2)c(NC(=O)Nc2ccccc2)c1 | inactive | 
Cc1ccccc1C(=O)Nc1ccc(Cl)cn1 | inconclusive: 1.58 µM [activator, partial curve, poor fit] | 
O=C(c1ccc2c(=O)n(-c3ccccc3)c(=O)[nH]c2c1)N1CCN(c2ccc(F)cc2)CC1 |  | inconclusive: -72.2% [activator] [at 1.84 µM, scaled: vehicle 0%, 10 µM genistein 100%]
CS/C(N)=N/N=C/c1cc(C)ccc1O | inconclusive: 2.24 µM [activator, full curve, poor fit] | 
O=C(Nn1c(SCc2ccc([N+](=O)[O-])cc2)nc2ccccc2c1=O)c1ccc(F)cc1 | inconclusive: 14.1 µM [activator, partial curve, poor fit] | 
Cc1cccc(Nc2nc(-c3ccccc3)cs2)n1 | inconclusive: 3.16 µM [activator, partial curve, poor fit] | 
O=C(Cc1ccc([N+](=O)[O-])cc1)Nc1cccc(C(=O)N2CCCC2)c1 | inactive | 
Fc1ccc(-c2nc3cnccn3c2NC2CCCC2)cc1 | inactive | 
Cc1[nH]c(-c2ccc(F)cc2)cc1C(=O)N1CCN(c2ccccc2F)CC1 | inactive | 
CCCC(=O)Nc1nc2c(s1)CC(C(C)(C)C)CC2 (stereo unspecified) | inconclusive: 35.5 µM [activator, single point] | 
Cc1cccc(NC(=O)c2ccc(COc3ccccc3)o2)n1 | inconclusive: 22.4 µM [activator, single point] | 
O=C(Nc1ccc2c(c1)OCCO2)c1ccc(Br)o1 | inconclusive: 2.24 µM [activator, partial curve, poor fit] | 
COCCNc1oc(-c2ccc(Cl)cc2)nc1C#N | active: 5.62 µM | 
Cc1ccc(-c2[nH]n3c(=O)c4c(nc3c2C)CCCC4)cc1 |  | inactive: 11.8% [at 1.84 µM, scaled: vehicle 0%, 10 µM genistein 100%]

SMILES | Potency | activation
CCOC(=O)CSc1nc2cc(OC)ccc2cc1C#N | inconclusive: 3.16 µM [activator, partial curve, poor fit] | 
COC(=O)c1cnn(-c2cc(Oc3ccccc3)ncn2)c1N | inconclusive: 2.51 µM [activator, full curve, poor fit] | 
Cc1ccccc1OCC(=O)Nc1ccc2c(c1)C(=O)c1ccccc1C2=O | active: 5.01 µM | 
CC(=NNC(=S)N1CCN(C2CCCCCC2)CC1)c1ccccn1 |  | inconclusive: -83.7% [activator]
Fc1ccc(/C=N/Nc2nccnc2Cl)cc1 | active: 10 µM | 
O=C(N/N=C/c1ccccc1)c1n[nH]c2c1CCCC2 | inconclusive: 0.631 µM [activator, full curve, poor fit] | 
Cc1ccc(C)c(OCc2cc(C(=O)N3C[C@@H](C)O[C@@H](C)C3)no2)c1 | active: 4.47 µM | 
Clc1cccc(CSc2ncnc3c2ncn3C2CCCCO2)c1 (stereo unspecified) | active: 5.62 µM | 
Cc1ccc(C)c(NC(=O)N2CCc3ccccc3C2)c1 | active: 3.55 µM | 
Cc1ccc(N/N=C/c2ccncc2)cc1 | active: 6.31 µM | 
Cc1ccc(O)c(CN(C)Cc2cc(C)ccc2O)c1 | inactive | 
COc1ccccc1C1CC(c2c(-c3ccccc3)c3cc(Cl)ccc3[nH]c2=O)=NN1S(C)(=O)=O (stereo unspecified) | inactive | 
O=[N+]([O-])c1cccnc1Oc1ccc(C2SCCS2)cc1 | inconclusive: 14.1 µM [activator, partial curve, poor fit] | 
O=C(CS(=O)(=O)c1ccccc1)N1CCc2ccccc21 | inconclusive: 12.6 µM [activator, partial curve, poor fit] | 
C[C@@H]1CCCCO[C@@H](CN(C)Cc2ccc(Cl)c(Cl)c2)[C@@H](C)CN([C@H](C)CO)C(=O)c2cc(NC(=O)CCC(F)(F)F)ccc2O1 | inactive | 
O=C(Nc1ccc(F)cc1)C1CCC(CNc2c(N3CCCCC3)c(=O)c2=O)CC1 (stereo unspecified) | inactive | 
CCOC(=O)c1sc2nc(-c3ccccc3)ccc2c1N |  | inconclusive: 82.2% [activator]
O=C(Nc1ccc(N2CCOCC2)cc1)c1ccc2ncsc2c1 | inconclusive: 1.26 µM [activator, full curve, poor fit] | 
O=C1c2ccccc2C(O)(c2ccccc2)N1c1ccc([N+](=O)[O-])cc1Cl (stereo unspecified) | inactive | 
Cc1nn(-c2ccccc2)c(N)c1-c1ccccc1 | inconclusive: 10 µM [activator, partial curve, poor fit] | 
CCCC1CCc2c(sc(NC(=O)c3cccs3)c2C(N)=O)C1 (stereo unspecified) | active: 11.2 µM | 
CCOc1ccc(N(CC(=O)Nc2ccc(C)c(C)c2)S(C)(=O)=O)cc1 | active: 2 µM | 
Cc1cccc(-n2ncc3c(NCc4cccnc4)ncnc32)c1 | active: 2.51 µM | 
